The list shows a part of the results. At the low end of the ranking, values are background and their order means little.
target: T1, ETS1 (UniProt P14921); test: custom PBM; conditions: custom protein-binding microarray; buffer, salt, pH and temperature not stated; high values mean tight binding; double strand, one strand shown
T1 sequence: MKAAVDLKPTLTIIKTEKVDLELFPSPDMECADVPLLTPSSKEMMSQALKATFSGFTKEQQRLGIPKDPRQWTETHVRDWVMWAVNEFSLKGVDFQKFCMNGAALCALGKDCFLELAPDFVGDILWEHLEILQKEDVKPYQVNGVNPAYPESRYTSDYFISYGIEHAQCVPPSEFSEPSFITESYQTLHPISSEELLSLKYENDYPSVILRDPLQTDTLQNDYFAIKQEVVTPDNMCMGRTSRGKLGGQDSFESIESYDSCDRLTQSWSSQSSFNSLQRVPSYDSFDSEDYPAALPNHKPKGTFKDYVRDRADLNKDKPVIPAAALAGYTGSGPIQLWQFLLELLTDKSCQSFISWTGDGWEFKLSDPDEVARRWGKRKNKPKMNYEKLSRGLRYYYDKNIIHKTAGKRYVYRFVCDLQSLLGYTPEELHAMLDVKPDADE

Row | Sequence | binding signal (log fluorescence intensity)
1 | GATTAATTTCTGCCGTTATTCGCACGTGCCATAACAGTCTTGATTCGCTTGACGCTGCTG | 8.2
2 | GCTGCTGCTGTGCATACCCCACCGGATGTGACCCCGGTCTTGATTCGCTTGACGCTGCTG | 9.42
3 | TCCGGGTACCAGCTCCACCCACTTCAGGCCTTGTAGGTCTTGATTCGCTTGACGCTGCTG | 8.28
4 | TAAAGGGAAGACGGTTGTGGTAGTTGCGGGTATTAAGTCTTGATTCGCTTGACGCTGCTG | 8.38
5 | GTGTATAGGATCCCATCCAACACATGTGTTAAAATGGTCTTGATTCGCTTGACGCTGCTG | 8.29
6 | GTGTATAGGATCCCATCCAACACACGTGTTCAAATGGTCTTGATTCGCTTGACGCTGCTG | 8.26
7 | GCTGCTGCGGTGCATACCCCACCGGATGTGACCCAGGTCTTGATTCGCTTGACGCTGCTG | 10.3
8 | GACTGACTTATATATGCGAATGCACATGAATAGACCGTCTTGATTCGCTTGACGCTGCTG | 8.26
9 | TACTGACTTATATATGCGAATGCACATTAATAGACCGTCTTGATTCGCTTGACGCTGCTG | 8.25
10 | TACTGACTTATATATGCGAATGCACATGAATAGAACGTCTTGATTCGCTTGACGCTGCTG | 8.15
11 | TACTGACTTATATATGCGAATGCACATGAATAGACAGTCTTGATTCGCTTGACGCTGCTG | 8.29
12 | CATTAATTTCTGCCCTTATTCGCACGTGCCATAACAGTCTTGATTCGCTTGACGCTGCTG | 8.25
13 | GCTGATGCGGTGCATACCCCACCGGATGTGACCCCGGTCTTGATTCGCTTGACGCTGCTG | 10.2
14 | CGGAATTGTCGTAAACGTCGGATATCCGGTTCTTCTGTCTTGATTCGCTTGACGCTGCTG | 12.2
15 | TGTCGGGTAAGGGAAAGTAGATCACGTGAATGAAAAGTCTTGATTCGCTTGACGCTGCTG | 8.16
16 | CGGAAGTGTCGTAAACGTCGTATATCCGGTTCTTCTGTCTTGATTCGCTTGACGCTGCTG | 11.8
17 | GATTAATTTCTGGCCTTATTCGCACGTGCCATAACAGTCTTGATTCGCTTGACGCTGCTG | 8.09
18 | GATTAATTTCTGCCCTTATTCGCACGTGCCCTAACAGTCTTGATTCGCTTGACGCTGCTG | 8.12
19 | GTGTATAGGGTCCCATCCAACACACGTGTTAAAATGGTCTTGATTCGCTTGACGCTGCTG | 8.3
20 | TACTGACTTATATATGCGAATGCACATGATTAGACCGTCTTGATTCGCTTGACGCTGCTG | 8.14
21 | TAAAGGGAAGACGGTTGTGGTAGTTCCGTGTATTAAGTCTTGATTCGCTTGACGCTGCTG | 8.27

Row | Sequence | binding signal (log fluorescence intensity)
22 | GCTACTGCGGTGCATACCCCACCGGATGTGACCCCGGTCTTGATTCGCTTGACGCTGCTG | 10.1
23 | GCTGCTGCGGTGCATACCCCACGGGATGTGACCCCGGTCTTGATTCGCTTGACGCTGCTG | 8.14
24 | TCCGGCTACCAGCTCCACCCACCTCAGGCCTTGTAGGTCTTGATTCGCTTGACGCTGCTG | 8.07
25 | GCTTAATTTCTGCCCTTATTCGCACGTGCCATAACAGTCTTGATTCGCTTGACGCTGCTG | 8.29
26 | GCTGCTGCGGTGCATACCCCACCGGATGTGACCGCGGTCTTGATTCGCTTGACGCTGCTG | 10.5
27 | GATTAATTTCTGCCCTTATTCGCACGTGACATAACAGTCTTGATTCGCTTGACGCTGCTG | 8.18
28 | TCCGGCTACCAGCTCCACCCACTTCAGGCCTTGTAGGTCTTGATTCGCTTGACGCTGCTG | 8.36
29 | TAAAGGGAAGACGGTTGTGGTAGTTCCGGGTATCAAGTCTTGATTCGCTTGACGCTGCTG | 8.76
30 | TAAAGGGAAGACGGTTGTGGTAGTTCCGGATATTAAGTCTTGATTCGCTTGACGCTGCTG | 8.8
31 | TGTCGGGTAAGGGAATGTTGATCACGTGAATGAAAAGTCTTGATTCGCTTGACGCTGCTG | 8.32
32 | CTGGGACTTCACCCAACTCTGCCACGTGGGTCGTTTGTCTTGATTCGCTTGACGCTGCTG | 8.06
33 | CGGAAGTGTCGTAAACGTCGGATATCCGGTACTTCTGTCTTGATTCGCTTGACGCTGCTG | 11.8
34 | CACAATTTTTACAGTAATGTAGCACGCGTAACGCCTGTCTTGATTCGCTTGACGCTGCTG | 8.14
35 | CACAATTTTTACAGTAATGTAGCACGCGTAACTCATGTCTTGATTCGCTTGACGCTGCTG | 8.24
36 | GGAAAAAGGCCCAGGGTAATACCGGAAGTGGGCTTAGTCTTGATTCGCTTGACGCTGCTG | 12
37 | TACTGACTTATACATGCGAATGCACATGAATAGACCGTCTTGATTCGCTTGACGCTGCTG | 8.23
38 | CGGAAGTTTCGTAAACGTCGGATATCCGGTTCTTCTGTCTTGATTCGCTTGACGCTGCTG | 11.6
39 | CACAGTTTTTACAGTAATGTAGCACGCGTAACTCCTGTCTTGATTCGCTTGACGCTGCTG | 8.32
40 | GCTGCTGCGGTGCATACCCCACCGAATGTGACCCCGGTCTTGATTCGCTTGACGCTGCTG | 8.2
41 | GGTTAATTTCTGCCCTTATTCGCACGTGCCATAACAGTCTTGATTCGCTTGACGCTGCTG | 8.12
42 | TACTGTCTTATATATGCGAATGCACATGAATAGACCGTCTTGATTCGCTTGACGCTGCTG | 8.29

Row | Sequence | binding signal (log fluorescence intensity)
43 | GATTAATTTCTGCCCCTATTCGCACGTGCCATAACAGTCTTGATTCGCTTGACGCTGCTG | 8.37
44 | CGGAAGTGTCGTAAACGTCGGATATCCTGTTCTTCTGTCTTGATTCGCTTGACGCTGCTG | 10.1
45 | CACAATTTTTACAGTAATGGAGCACGCGTAACTCCTGTCTTGATTCGCTTGACGCTGCTG | 8.32
46 | TGTCGGGCAAGGGAATGTAGATCACGTGAATGAAAAGTCTTGATTCGCTTGACGCTGCTG | 8.27
47 | GGAAAAATGCCCAGGGTAACACCGGAAGTGGGCTTAGTCTTGATTCGCTTGACGCTGCTG | 12.1
48 | CGGAAGTGTCGTAAACGTCGGATATCCGGTTCGTCTGTCTTGATTCGCTTGACGCTGCTG | 11.9
49 | CAGCATAGGACTTCTTCCCTGAAGCAATTGATAAACGTCTTGATTCGCTTGACGCTGCTG | 8.31
50 | GATTAATTTCTGCCCTTATGCGCACGTGCCATAACAGTCTTGATTCGCTTGACGCTGCTG | 8.04
51 | CTAGGACTTGACCCAACTCTGCCACGTGGGTCGTTTGTCTTGATTCGCTTGACGCTGCTG | 8.03
52 | GGAAAAAGGCCCAGGGTAACACCGGAAGTGAGCTTAGTCTTGATTCGCTTGACGCTGCTG | 11.9
53 | GATTAATTTCTGCCCTTATTCGCACGCGCCATAACAGTCTTGATTCGCTTGACGCTGCTG | 8.16
54 | CTGGGACTTGACCCAACTCTGCCACGTCGGTCGTTTGTCTTGATTCGCTTGACGCTGCTG | 8.15
55 | TAAAGGAAAGACGGTTGTGGTAGTTCCGGGTATTAAGTCTTGATTCGCTTGACGCTGCTG | 8.77
56 | GGAAAAAGGCCCAGGGTAACACCGGATGTGGGCTTAGTCTTGATTCGCTTGACGCTGCTG | 11
57 | CAGCATAGGACTTCTTCCCTGAAGCAATTGACAACCGTCTTGATTCGCTTGACGCTGCTG | 7.96
58 | TACTGACTTATATATGCAAATGCACATGAATAGACCGTCTTGATTCGCTTGACGCTGCTG | 8.22
59 | CACAATTTTTACATTAATGTAGCACGCGTAACTCCTGTCTTGATTCGCTTGACGCTGCTG | 8.25
60 | GTGGATAGGATCCCATCCAACACACGTGTTAAAATGGTCTTGATTCGCTTGACGCTGCTG | 8.28
61 | CTCAATTTTTACAGTAATGTAGCACGCGTAACTCCTGTCTTGATTCGCTTGACGCTGCTG | 8.39
62 | TGTCGGGTAAGGGAATGTAGATCACGTGTATGAAAAGTCTTGATTCGCTTGACGCTGCTG | 8.19
63 | TCCGGCTACCAGCTCCACCCACTTCAGGCCCTGTAGGTCTTGATTCGCTTGACGCTGCTG | 8.19

Row | Sequence | binding signal (log fluorescence intensity)
64 | GATTAATTTCTGCCCTTTTTCGCACGTGCCATAACAGTCTTGATTCGCTTGACGCTGCTG | 8.42
65 | TGTCGGGTAAGGGAATGTAGATCACGTGAATGCAAAGTCTTGATTCGCTTGACGCTGCTG | 8.38
66 | TCCGGCTACCAGCTCCACCCACTTCAGGCCTTTTAGGTCTTGATTCGCTTGACGCTGCTG | 8.35
67 | GGAAAAAGTCCCAGGGTAACACCGGAAGTGGGCTTAGTCTTGATTCGCTTGACGCTGCTG | 12.1
68 | GTGTATAGGATCCCATCCAGCACACGTGTTAAAATGGTCTTGATTCGCTTGACGCTGCTG | 8.27
69 | TAAAGGGAAGACGGTTGTGGTAGTTCCGGGTATTCAGTCTTGATTCGCTTGACGCTGCTG | 8.52
70 | CAGCATAGGACTTCTTCCCTGAAGCAATCGATAACCGTCTTGATTCGCTTGACGCTGCTG | 8.4
71 | CGGAAGTGTCGTCAACGTCGGATATCCGGTTCTTCTGTCTTGATTCGCTTGACGCTGCTG | 11.8
72 | TGTCGGGTAAGGGAATGGAGATCACGTGAATGAAAAGTCTTGATTCGCTTGACGCTGCTG | 8.16
73 | GATTAATTTCTGCCCTTATTCGCACGTGCCATAAGAGTCTTGATTCGCTTGACGCTGCTG | 8.21
74 | GCTCCTGCGGTGCATACCCCACCGGATGTGACCCCGGTCTTGATTCGCTTGACGCTGCTG | 10.2
75 | GCTGCTGCGGTGCATACCCCACCGGATGTGACCCCGGTCTTGATTCGCTTGACGCTGCTG | 10.2
76 | CACAATTTTTACAGTAATGTAGCACGCGGAACTCCTGTCTTGATTCGCTTGACGCTGCTG | 8.35
77 | GTGTATAGCATCCCATCCAACACACGTGTTAAAATGGTCTTGATTCGCTTGACGCTGCTG | 8.58
78 | ACTGCTGCGGTGCATACCCCACCGGATGTGACCCCGGTCTTGATTCGCTTGACGCTGCTG | 10.4
79 | TAAAGGGAAGACGGTTGTGGTAGTTCCGGTTATTAAGTCTTGATTCGCTTGACGCTGCTG | 9.95
80 | GGAAAAAGGCCCAGGGTAACACCGGAAGTGGGTTTAGTCTTGATTCGCTTGACGCTGCTG | 12
81 | CAGAATTTTTACAGTAATGTAGCACGCGTAACTCCTGTCTTGATTCGCTTGACGCTGCTG | 8.28
